# According to the supplement of paper PMC4604168 (melanoma cell lines):
# Some of the results follow. Many values rest on one well or one pass, so single values are uncertain.
# What was measured:
# Test in all cases: cell count relative to DMSO control; melanoma cells; higher = more viable cells
# Settings in all cases: library dose: standard library concentration; 72 h
# [1] = system: A101D
# [2] = system: A2058
# [3] = system: A375
# 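Further: cells treated in 1,536-well plates, then fixed and DAPI-stained, with nuclei counted from automated high-throughput microscope images.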
SMILES,cell count [1] [%],cell count [2] [%],cell count [3] [%]
"Cn1cnc2c(F)c(Nc3ccc(Br)cc3Cl)c(C(=O)NOCCO)cc21 [selumetinib] + C=CCn1c(=O)c2cnc(Nc3ccc(N4CCN(C)CC4)cc3)nc2n1-c1cccc(C(C)(C)O)n1 [MK1775] (first compound 0.075 µM, partner dose 0.1 µM)",54,80.3,60.9
"CCN(CC)CCNC(=O)c1c(C)[nH]c(/C=C2\C(=O)Nc3ccc(F)cc32)c1C [sunitinib] + CN1CCN(c2ccc3nc(-c4c(N)c5c(F)cccc5[nH]c4=O)[nH]c3c2)CC1 [Dovitinib] (first compound 2 µM, partner dose 0.5 µM)",70.5,51.9,94.3
"COc1cc([C@@H]2c3cc4c(cc3[C@@H](O[C@@H]3O[C@@H]5CO[C@@H](C)O[C@H]5[C@H](O)[C@H]3O)[C@H]3COC(=O)[C@H]23)OCO4)cc(OC)c1O [etoposide] + CC(C)(C)c1cnc(CSc2cnc(NC(=O)C3CCNCC3)s2)o1 [SNS-032] (first compound 0.1 µM, partner dose 0.05 µM)",78.1,76.1,71.8
"Cn1cnc2c(F)c(Nc3ccc(Br)cc3Cl)c(C(=O)NOCCO)cc21 [selumetinib] + OCc1c[nH]c2ccccc12 [Indole-3-carbinol] (first compound 0.075 µM, partner dose 4 µM)",63.3,103,102
"C[C@]1(O)C[C@@H](c2nc(-c3ccc4ccc(-c5ccccc5)nc4c3)c3c(N)nccn32)C1 + CC(=O)O[C@@]12CO[C@@H]1C[C@H](O)[C@@]1(C)C(=O)[C@H](O)C3=C(C)[C@@H](OC(=O)[C@H](O)[C@@H](NC(=O)OC(C)(C)C)c4ccccc4)C[C@@](O)([C@@H](OC(=O)c4ccccc4)[C@H]21)C3(C)C [Docetaxel] (first compound 2 µM, partner dose 0.0005 µM)",51.4,8.3,63.3
"COc1cc([C@@H]2c3cc4c(cc3[C@@H](O[C@@H]3O[C@@H]5CO[C@@H](C)O[C@H]5[C@H](O)[C@H]3O)[C@H]3COC(=O)[C@H]23)OCO4)cc(OC)c1O [etoposide] + C=CCn1c(=O)c2cnc(Nc3ccc(N4CCN(C)CC4)cc3)nc2n1-c1cccc(C(C)(C)O)n1 [MK1775] (first compound 0.1 µM, partner dose 0.1 µM)",66.6,46.9,68.2
"CCN(CC)CCNC(=O)c1c(C)[nH]c(/C=C2\C(=O)Nc3ccc(F)cc32)c1C [sunitinib] + COc1ccc(Cl)c(Nc2nc3ccccc3nc2NS(=O)(=O)c2cccc(NC(=O)C(C)(C)N)c2)c1 [XL147] (first compound 2 µM, partner dose 4 µM)",57,63,95.9
"CCN(CC)CCNC(=O)c1c(C)[nH]c(/C=C2\C(=O)Nc3ccc(F)cc32)c1C [sunitinib] + OCCn1cc(-c2cnc3nnn(Cc4ccc5ncccc5c4)c3n2)cn1 [PF04217903] (first compound 2 µM, partner dose 5 µM)",87,84,96.6
"C[C@]1(O)C[C@@H](c2nc(-c3ccc4ccc(-c5ccccc5)nc4c3)c3c(N)nccn32)C1 + Cc1ccc(NC(=O)c2cccc(N(C)C)c2)cc1NC(=O)c1ccc(O)cc1 [ZM336372] (first compound 2 µM, partner dose 10 µM)",100,112,84.8
"Cn1cnc2c(F)c(Nc3ccc(Br)cc3Cl)c(C(=O)NOCCO)cc21 [selumetinib] + CS(=O)(=O)c1ccc(C(=O)Nc2ccc(Cl)c(-c3ccccn3)c2)c(Cl)c1 [vismodegib] (first compound 0.075 µM, partner dose 5 µM)",70.5,92.5,103
"CCN(CC)CCNC(=O)c1c(C)[nH]c(/C=C2\C(=O)Nc3ccc(F)cc32)c1C [sunitinib] + C=CCn1c(=O)c2cnc(Nc3ccc(N4CCN(C)CC4)cc3)nc2n1-c1cccc(C(C)(C)O)n1 [MK1775] (first compound 2 µM, partner dose 0.1 µM)",62.5,61.5,57.6
"COc1cc([C@@H]2c3cc4c(cc3[C@@H](O[C@@H]3O[C@@H]5CO[C@@H](C)O[C@H]5[C@H](O)[C@H]3O)[C@H]3COC(=O)[C@H]23)OCO4)cc(OC)c1O [etoposide] + CCCCCCCCCCCCCCCCCCOP(=O)([O-])OC1CC[N+](C)(C)CC1 [Perifosine] (first compound 0.1 µM, partner dose 2 µM)",94.1,77.8,79.6
"C[C@]1(O)C[C@@H](c2nc(-c3ccc4ccc(-c5ccccc5)nc4c3)c3c(N)nccn32)C1 + COCC[n+]1c2c(n(Cc3cnccn3)c1C)C(=O)c1ccccc1C2=O [YM155] (first compound 2 µM, partner dose 0.002 µM)",58.1,17.9,68.5
"C[C@]1(O)C[C@@H](c2nc(-c3ccc4ccc(-c5ccccc5)nc4c3)c3c(N)nccn32)C1 + C#Cc1cccc(Nc2ncnc3cc(OCCOC)c(OCCOC)cc23)c1 [erlotinib] (first compound 2 µM, partner dose 4 µM)",60.5,86.6,92.7
"CCN(CC)CCNC(=O)c1c(C)[nH]c(/C=C2\C(=O)Nc3ccc(F)cc32)c1C [sunitinib] + C[C@@H]1CCN(C(=O)CC#N)C[C@@H]1N(C)c1ncnc2[nH]ccc12 [CP690550] (first compound 2 µM, partner dose 5 µM)",81.1,69.9,109
"COc1cc([C@@H]2c3cc4c(cc3[C@@H](O[C@@H]3O[C@@H]5CO[C@@H](C)O[C@H]5[C@H](O)[C@H]3O)[C@H]3COC(=O)[C@H]23)OCO4)cc(OC)c1O [etoposide] + O=C(O)[C@@H]1[O][Sb](=[O])([O][Sb]2(=[O])[O][C@H]([C@H](O)CO)[C@H](O)[C@H](C(=O)O)[O]2)[O][C@H]([C@H](O)CO)[C@@H]1O [stibogluconate] (first compound 0.1 µM, partner dose 10 µM)",88.6,69.4,70.2
"Cn1cnc2c(F)c(Nc3ccc(Br)cc3Cl)c(C(=O)NOCCO)cc21 [selumetinib] + O=C(CCCCCCC(=O)Nc1ccccc1)NO [vorinostat] (first compound 0.075 µM, partner dose 0.4 µM)",67,101,92.4
"Cn1cnc2c(F)c(Nc3ccc(Br)cc3Cl)c(C(=O)NOCCO)cc21 [selumetinib] + Nc1ncn([C@H]2C[C@H](O)[C@@H](CO)O2)c(=O)n1 [decitabine] (first compound 0.075 µM, partner dose 0.5 µM)",73.4,78.3,91.7
"C[C@]1(O)C[C@@H](c2nc(-c3ccc4ccc(-c5ccccc5)nc4c3)c3c(N)nccn32)C1 + CCCS(=O)(=O)Nc1ccc(F)c(C(=O)c2c[nH]c3ncc(Cl)cc23)c1F [PLX4720] (first compound 2 µM, partner dose 0.4 µM)",75.5,112,103
"C[C@]1(O)C[C@@H](c2nc(-c3ccc4ccc(-c5ccccc5)nc4c3)c3c(N)nccn32)C1 + Cn1cncc1[C@@](N)(c1ccc(Cl)cc1)c1ccc2c(c1)c(-c1cccc(Cl)c1)cc(=O)n2C [tipifarnib] (first compound 2 µM, partner dose 0.05 µM)",66.7,75.3,72.3
"C[C@]1(O)C[C@@H](c2nc(-c3ccc4ccc(-c5ccccc5)nc4c3)c3c(N)nccn32)C1 + COc1ccc(Cl)c(Nc2nc3ccccc3nc2NS(=O)(=O)c2cccc(NC(=O)C(C)(C)N)c2)c1 [XL147] (first compound 2 µM, partner dose 4 µM)",123,102,92.1
"COc1cc([C@@H]2c3cc4c(cc3[C@@H](O[C@@H]3O[C@@H]5CO[C@@H](C)O[C@H]5[C@H](O)[C@H]3O)[C@H]3COC(=O)[C@H]23)OCO4)cc(OC)c1O [etoposide] + CCN(CC)CCNC(=O)c1c(C)[nH]c(/C=C2\C(=O)Nc3ccc(F)cc32)c1C [sunitinib] (first compound 0.1 µM, partner dose 2 µM)",58.1,75.4,85.3
"COc1cc([C@@H]2c3cc4c(cc3[C@@H](O[C@@H]3O[C@@H]5CO[C@@H](C)O[C@H]5[C@H](O)[C@H]3O)[C@H]3COC(=O)[C@H]23)OCO4)cc(OC)c1O [etoposide] + Cn1c(=O)n(-c2ccc(C(C)(C)C#N)cc2)c2c3cc(-c4cnc5ccccc5c4)ccc3ncc21 [NVP-BEZ235] (first compound 0.1 µM, partner dose 0.02 µM)",80.5,56.8,108
"Cn1cnc2c(F)c(Nc3ccc(Br)cc3Cl)c(C(=O)NOCCO)cc21 [selumetinib] + CO[C@H]1C[C@@H]2CC[C@@H](C)[C@@](O)(O2)C(=O)C(=O)N2CCCC[C@H]2C(=O)O[C@H]([C@H](C)C[C@@H]2CC[C@@H](OCCO)[C@H](OC)C2)CC(=O)[C@H](C)/C=C(\C)[C@@H](O)[C@@H](OC)C(=O)[C@H](C)C[C@H](C)/C=C/C=C/C=C/1C [everolimus] (first compound 0.075 µM, partner dose 0.1 µM)",63.5,57.1,81.4
"Cn1cnc2c(F)c(Nc3ccc(Br)cc3Cl)c(C(=O)NOCCO)cc21 [selumetinib] + CC1(C)NC(=O)N(c2ccc([N+](=O)[O-])c(C(F)(F)F)c2)C1=O [nilutamide] (first compound 0.075 µM, partner dose 5 µM)",66.9,104,97.3
